Data reported in PubChem BioAssay.
The inconclusive results got no clear call from the source; some entries with a clear call stand among them for comparison. The source made the active and inactive calls.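 The calls were made as follows, unless noted: active = thallium entry rate above the same plate's blocked-transporter control wells by more than 3 SD; inconclusive = the two repeat wells disagree; inactive = the rest.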

Tests used:
[1] = FluoZin2 fluorescence counter-screen of MLSMR hits on KCC2-expressing cells (AID 1714); details: HEK293-KCC2 + bumetanide/ouabain, at 10 µM, hits give high values;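 also: raw slope of fluorescence over initial fluorescence between 10 and 20 s after thallium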
Procedure, shortened: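 material = KCC2-expressing HEK cells | reagent = thallium stimulus | compound dosing = 10 µM single dose | schedule = cells overnight at 37 °C, FluoZin2-AM dye loading 48 min | technique = kinetic FluoZin2 fluorescence, ex 480/em 540 nm | evaluation = normalized thallium flux slope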

[2] = molecular target: Solute carrier family 12 member 5 (Homo sapiens) (UniProt Q9H2X9); test: modulation of KCC2 thallium flux in HEK cells – cell-based, ouabain, retest, confirmation (AID 1717;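 active = thallium flux slope beyond 3 SD from same-plate DMSO control mean in most replicates, usually higher, sometimes lower; inconclusive = repeat tests gave conflicting results; inactive = no significant difference from controls in most replicates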;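 also: slope of initial-normalized fluorescence between seconds 10 and 20 after thallium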); details: HEK293-KCC2, thallium flux FluoZin2 fluorescence, at 10 µM, bidirectional: low = inhibitor, high = activator
[3] = compound effects on native HEK Tl+ uptake – HEK cells, counterscreen 1, counter-screen for KCC2 modulator project, confirmation (AID 1716;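 active = thallium flux rate significantly above the same plate's solvent-only control wells, beyond their mean plus 3 SD; inconclusive = the two replicate wells gave conflicting results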); details: HEK293 parental cells, thallium flux FluoZin2, ouabain; at 10 µM; baseline-ratio fluorescence slope, 10–20 s after thallium
[4] = native HEK Tl+ uptake effects, second counter-screen – HEK cells, counterscreen 2, counter-screen for KCC2 modulator project, confirmation (AID 1718;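 active = thallium flux slope above the same plate's solvent-control mean plus 3 SD in both duplicate wells; inconclusive = duplicate wells that disagreed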;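 also: run without ouabain in cells lacking the KCC2 cotransporter; slope of fluorescence scaled to its starting value between 10 and 20 s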); details: HEK293 parental, thallium flux FluoZin-2 fluorescence slope; at 10 µM
Procedure, shortened: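 System: Parental HEK cells | Also added: Thallium sulfate stimulus buffer | Compound dosing: Single 10 µM final compound dose, 0.1% DMSO | Schedule: Overnight cell culture at 37 °C, 48 min dye loading, compound before thallium | Signal: FluoZin-2 fluorescence kinetics | Repeats: Replicate wells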

Chain of UniProt Q9H2X9 (Q9H2X9 whole entry, looked up): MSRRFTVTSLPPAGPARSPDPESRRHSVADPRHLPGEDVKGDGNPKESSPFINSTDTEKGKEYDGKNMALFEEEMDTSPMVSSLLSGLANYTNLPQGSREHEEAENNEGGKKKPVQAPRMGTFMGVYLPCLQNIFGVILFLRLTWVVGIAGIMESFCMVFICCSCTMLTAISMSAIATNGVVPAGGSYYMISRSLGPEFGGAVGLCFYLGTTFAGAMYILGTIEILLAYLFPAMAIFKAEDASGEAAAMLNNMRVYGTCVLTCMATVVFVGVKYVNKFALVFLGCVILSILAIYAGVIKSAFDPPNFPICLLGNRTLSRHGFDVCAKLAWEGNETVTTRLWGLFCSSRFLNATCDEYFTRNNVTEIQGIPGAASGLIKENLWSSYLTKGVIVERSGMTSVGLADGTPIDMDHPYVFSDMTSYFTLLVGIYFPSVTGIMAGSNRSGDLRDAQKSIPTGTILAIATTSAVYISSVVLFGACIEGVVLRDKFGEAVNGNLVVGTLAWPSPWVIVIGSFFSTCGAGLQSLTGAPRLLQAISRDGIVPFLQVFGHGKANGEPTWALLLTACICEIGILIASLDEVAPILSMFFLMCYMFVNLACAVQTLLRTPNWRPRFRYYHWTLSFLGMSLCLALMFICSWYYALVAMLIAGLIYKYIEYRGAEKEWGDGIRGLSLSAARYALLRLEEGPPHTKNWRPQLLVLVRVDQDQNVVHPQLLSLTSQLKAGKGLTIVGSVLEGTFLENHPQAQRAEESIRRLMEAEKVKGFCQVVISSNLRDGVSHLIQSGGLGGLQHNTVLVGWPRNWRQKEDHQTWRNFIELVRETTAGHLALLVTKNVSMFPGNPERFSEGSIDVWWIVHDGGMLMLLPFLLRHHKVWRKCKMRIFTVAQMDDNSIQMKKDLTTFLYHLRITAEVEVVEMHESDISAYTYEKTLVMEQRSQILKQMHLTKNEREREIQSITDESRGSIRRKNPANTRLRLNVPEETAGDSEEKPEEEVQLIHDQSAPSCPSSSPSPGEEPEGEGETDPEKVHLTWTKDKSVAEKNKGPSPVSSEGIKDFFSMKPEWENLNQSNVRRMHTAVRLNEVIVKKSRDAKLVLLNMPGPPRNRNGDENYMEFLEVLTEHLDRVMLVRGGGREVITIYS

| Compound | normalized thallium flux [1] | raw Tl+ flux slope (below DMSO = inhibition, above = activation) [2] | thallium flux rate (normalised fluorescence) [3] | thallium flux slope [4] |
| --- | --- | --- | --- | --- |
| c1coc(-c2nnc3sc(Cc4cccs4)nn23)c1 | inactive: 0.00483 | inconclusive: 0.0162 | – | – |
| S=c1[nH]nc(-c2ccc(Br)cc2)n1Cc1ccccc1 | active: 0.0267 | – | active: 0.0255 | inconclusive: 0.0126 |
| CSc1ccccc1NC(=O)c1cnc2scc(C)n2c1=O | inactive: 0.00456 | inconclusive: 0.0165 | – | – |
| O=C(NCc1ccc2c(c1)OCO2)c1ccc(COc2cccc(Cl)c2)o1 | inactive: 0.00484 | inconclusive: 0.0179 | – | – |
| O=C(Nc1ccc(Cc2ccncc2)cc1)c1cccc([N+](=O)[O-])c1 | inconclusive: 0.0054 | inconclusive: 0.0166 | – | – |
| O=C(O)CCc1ccc(-c2ccc(F)cc2)n1CCC(=O)O | inconclusive: 0.00777 | – | inactive: 0.00805 | inactive: 0.0111 |
| CCOc1ccc(Nc2nc(NCCN3CCOCC3)nc(OC)n2)cc1 | inconclusive: 0.00781 | inactive: 0.0192 | – | – |
| O=C1C2CCCN2C(c2ccccc2F)N1c1cccc(Cl)c1 (stereo not given) | inconclusive: 0.00581 | – | inconclusive: 0.00825 | inactive: 0.0121 |
| O=C(CSc1nnc(-c2ccccn2)n1Cc1ccco1)c1ccc(Cl)cc1 | inconclusive: 0.00322 | inactive: 0.0163 | – | – |
| Cc1ccc(NC(=S)N=Nc2c(O)n(C)c3ccc(S(=O)(=O)N4CCOCC4)cc23)cc1C | active: 0.0128 | inconclusive: 0.0236 | – | – |
| N#Cc1ccsc1NC(=O)c1ccc(Cl)c([N+](=O)[O-])c1 | inactive: 0.00477 | inconclusive: 0.0149 | – | – |
| O=C(Cc1ccccc1)N/N=C/c1ccc([N+](=O)[O-])s1 | inconclusive: 0.00551 | – | inconclusive: 0.00914 | inconclusive: 0.0127 |
| CC(=O)Nc1ccc(OCC(O)CNC2CCCC2)cc1 (stereo not given) | inconclusive: 0.00534 | – | inconclusive: 0.00877 | inactive: 0.0108 |
| COC(=O)C1CCN(S(=O)(=O)c2cn(C)c(=O)n(C)c2=O)CC1 | inconclusive: 0.00691 | inactive: 0.0214 | – | – |
| Cn1c(CNc2cccc(C(F)(F)F)c2)n[nH]c1=S | inactive: 0.00494 | inconclusive: 0.0166 | – | – |
| COc1ccc(CNC(=O)c2csc(Cc3ccc(Cl)cc3)n2)cc1 | inconclusive: 0.00357 | – | inconclusive: 0.00649 | inactive: 0.00964 |
| O=C(CSc1nnc(-c2ccccc2)o1)N1CCc2ccccc2C1 | inactive: 0.00383 | – | inconclusive: 0.00658 | inactive: 0.00979 |
| CC(=O)Nc1ccc(S(=O)(=O)Nc2cccc(-c3nc4ccccc4o3)c2)cc1 | inconclusive: 0.00722 | – | inactive: 0.00398 | inactive: 0.0118 |
| O=C(CSCc1ccc(F)cc1)N1CCN(c2ccc(F)cc2)CC1 | inconclusive: 0.0042 | – | inactive: 0.00366 | inactive: 0.0113 |
| CCc1c(C)sc(NC(=O)c2cc(C(C)C)on2)c1C#N | active: 0.0272 | – | inconclusive: 0.0114 | inconclusive: 0.0132 |
| CC(C)c1ccc(/C=N/NC(=O)c2ccccc2Cl)cc1 | inactive: 0.00501 | inconclusive: 0.0167 | – | – |
| O=C(NN1C(=O)/C(=C/C=C/c2ccco2)SC1=S)c1ccccc1O | inconclusive: 0.00495 | inconclusive: 0.0153 | – | – |
| Oc1csc(Cc2nc(-c3ccc4ccccc4c3)cs2)n1 | inconclusive: 0.0056 | – | inactive: 0.00734 | inactive: 0.01 |
| Cc1ccc(C)n1NC(=O)c1ccccc1 | inconclusive: 0.00682 | inactive: 0.0217 | – | inactive: 0.0107 |
| CCCCCC(=O)NNC(=O)c1c(O)c2ccccc2n(CC)c1=O | active: 0.0138 | inconclusive: 0.0229 | – | active: 0.0154 |
| CCOC(=O)CSc1nc2ccccc2c(=O)n1CCCCCC(=O)NCc1ccco1 | inconclusive: 0.00432 | inactive: 0.0224 | – | inactive: 0.0109 |
| Cc1ccc(SCCNC(=O)c2ccc(C)c(S(=O)(=O)Nc3ccccc3C)c2)cc1 | inconclusive: 0.00503 | active: 0.0146 | – | – |
| Cc1noc(C)c1S(=O)(=O)N1CCC(C(=O)N2CCN(c3ccc(F)cc3)CC2)CC1 | inconclusive: 0.0051 | inconclusive: 0.0162 | – | – |
